Out of some 310,000 compounds screened, about 2,200 (0.71%) showed an effect of 50% or more. The effect is printed as a negative number. The list shows a part of the results.

The target of this assay is human ether-à-go-go-related gene (hERG) potassium channel (human, UniProt Q12809). Kind of assay: primary screen, population patch clamp on CHO cells stably expressing hERG.
human ether-à-go-go-related gene (hERG) potassium channel, sequence (Q12809 whole entry, looked up): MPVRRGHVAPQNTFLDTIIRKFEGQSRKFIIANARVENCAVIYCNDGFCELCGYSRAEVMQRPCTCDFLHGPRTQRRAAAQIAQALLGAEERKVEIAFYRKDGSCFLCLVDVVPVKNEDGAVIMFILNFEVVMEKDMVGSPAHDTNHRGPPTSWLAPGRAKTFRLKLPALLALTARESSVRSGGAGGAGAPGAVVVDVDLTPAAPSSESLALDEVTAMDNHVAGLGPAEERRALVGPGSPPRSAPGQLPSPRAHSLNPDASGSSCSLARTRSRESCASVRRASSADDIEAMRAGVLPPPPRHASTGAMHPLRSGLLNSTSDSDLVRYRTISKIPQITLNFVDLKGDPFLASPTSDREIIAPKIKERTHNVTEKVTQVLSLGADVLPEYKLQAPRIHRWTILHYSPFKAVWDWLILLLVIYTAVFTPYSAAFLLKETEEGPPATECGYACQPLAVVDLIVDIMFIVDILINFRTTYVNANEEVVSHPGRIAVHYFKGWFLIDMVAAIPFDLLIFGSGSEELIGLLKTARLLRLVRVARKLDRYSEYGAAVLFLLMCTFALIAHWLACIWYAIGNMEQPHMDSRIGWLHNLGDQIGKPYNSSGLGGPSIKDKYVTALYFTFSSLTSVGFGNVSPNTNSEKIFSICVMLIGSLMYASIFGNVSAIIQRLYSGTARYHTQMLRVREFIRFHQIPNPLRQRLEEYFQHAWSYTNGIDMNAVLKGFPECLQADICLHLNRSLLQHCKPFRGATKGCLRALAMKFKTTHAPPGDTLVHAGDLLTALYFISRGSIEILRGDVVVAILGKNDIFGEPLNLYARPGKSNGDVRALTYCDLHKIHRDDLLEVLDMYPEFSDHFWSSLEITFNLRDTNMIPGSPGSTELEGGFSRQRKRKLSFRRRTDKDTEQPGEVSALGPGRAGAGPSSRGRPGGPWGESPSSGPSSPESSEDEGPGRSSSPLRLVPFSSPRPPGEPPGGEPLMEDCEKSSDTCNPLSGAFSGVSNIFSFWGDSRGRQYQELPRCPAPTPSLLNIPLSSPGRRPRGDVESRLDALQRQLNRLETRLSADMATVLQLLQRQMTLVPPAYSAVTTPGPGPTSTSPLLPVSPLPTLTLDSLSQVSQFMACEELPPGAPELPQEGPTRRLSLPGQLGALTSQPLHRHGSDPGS
For `Cc1ccc(S(=O)(=O)CC(O)CN2CCCC2=O)cc1` (centres unmarked), the “hERG current change (%, negative = inhibition) at 1uM” value turned out to be 20.7%.
The same measure for `CC(=O)c1ccc(NS(=O)(=O)c2cccc(C)c2)cc1`: -8.69%; for `O=C(NC1CCCC1)C(c1ccccc1)N(C(=O)c1ccno1)c1cccnc1` (centres unmarked): 10.3%.
To `CC(NC(=O)COC(=O)C1CC2CCCC(C1)C2=O)c1ccccc1` (centres unmarked) belongs 3.89%; to `CCOC(=O)c1ccc(N2CCCCC2)c(NS(=O)(=O)c2cccc(C(F)(F)F)c2)c1`, 4.54%.
Take `COc1ccc(NS(=O)(=O)c2ccc(C)c(C(=O)NCC(c3cccs3)N3CCOCC3)c2)cc1` (centres unmarked): the “hERG current change (%, negative = inhibition) at 1uM” value stood at 1.44%.
To `O=S(=O)(c1ccc2c(c1)C(=NO)c1cc(S(=O)(=O)N3CCCCC3)ccc1-2)N1CCCCC1` belongs 7.4%; to `O=C1CN(C(=O)CSc2ccc(-c3ccc(F)cc3)nn2)c2ccccc2N1`, 2.58%.
The same measure for `Cc1ccc(OCCSc2nc3ccccc3n2CC(=O)O)cc1C`: 14.2%; for `Cc1ccc(C(C)(C)NC(=O)C2CCC(=O)N(CCCN3CCOCC3)C2)cc1` (centres unmarked): 5.85%.
To `O=C(NCC(=O)N1CCC2(CC1)NCCc1[nH]cnc12)c1ccc(Br)cc1` belongs 20.8%.
`CC(C)N(CCNCC(O)COc1ccc(C(C)(C)c2ccccc2)cc1)C(C)C.O=C(O)C(=O)O` (centres unmarked): the “hERG current change (%, negative = inhibition) at 1uM” value is listed as -4.4%.
The same measure for `CC(C)Oc1cccc(C(=O)C2CCCN(C(=O)CCc3cnn(C)c3)C2)c1` (centres unmarked): 10.7%; for `c1ccc(Cc2c[nH]c3ccccc23)cc1`: 5.76%.
For `COc1ccc(-c2csc(NC(=O)c3cc(C)oc3C)n2)cc1OC`, the “hERG current change (%, negative = inhibition) at 1uM” value is reported as -3.51%.
The same measure for `Cc1cc(N2CCOCC2)ccc1/C=C1\NC(=O)N(CC(=O)Nc2ccccc2C)C1=O`: 11%; for `Cc1ccc(C)c(OCC(=O)N2CCN(c3ncccn3)CC2)c1`: 9.23%; for `CCOc1ccc(NC(=O)CN(C)CC(=O)NC2CCCc3ccccc32)cc1OCC` (centres unmarked): 1.05%.
To `Cc1ccc(N2C(=O)/C(=C/c3ccc(CN(CCC#N)S(C)(=O)=O)o3)C(=O)NC2=S)cc1` belongs 8.81%.
For `Cc1ccc(NC(=O)C/C(N)=N/OC(=O)Nc2ccc(C)c(Cl)c2)cc1`, the “hERG current change (%, negative = inhibition) at 1uM” value is given as 8.59%.
`Cc1cccc(CCNc2nc3ccccc3n3nnnc23)c1`: the “hERG current change (%, negative = inhibition) at 1uM” value came to 10.7%.
`O=C(N/N=C/c1ccccc1Br)c1ccc(CSc2cccc3cccnc23)cc1`: the “hERG current change (%, negative = inhibition) at 1uM” value was 7.71%.
Regarding `Cn1nc(OCC(N)=O)ccc1=O`, the “hERG current change (%, negative = inhibition) at 1uM” value worked out at 8.48%.
`Nc1[nH]c(N=NC(=O)c2ccc(Cl)cc2)c2ccccc12`: the “hERG current change (%, negative = inhibition) at 1uM” value worked out at 6.1%.
The same measure for `CC1(C)NC(=O)N(CC(O)CN2CCCC2)C1=O` (centres unmarked): 7.56%; for `Cc1noc(C)c1S(=O)(=O)NCc1cccc(Cl)c1`: 7.55%; for `CCOc1ccc(NC(=O)C(C)NC(=O)c2ccccc2Cl)cc1S(=O)(=O)N1CCCC1` (centres unmarked): 4.44%.
As for `CC(C)Cn1nc(NC(=O)c2ccco2)c2cc3ccccc3nc21`, the “hERG current change (%, negative = inhibition) at 1uM” value is 12.3%.
To `CCN(c1ccc(NC(=O)CCNC(=O)c2ccco2)cc1)C(C)C` belongs 13.2%; to `CSc1ccc(/C=C(/NC(=O)c2ccc(C)cc2)C(=O)Nc2cccc(C)c2)cc1`, 6.52%.
Consider `Cc1onc(-c2ccccc2)c1C(=O)NC1CCC(C)CC1` (centres unmarked), for which the “hERG current change (%, negative = inhibition) at 1uM” value was determined as 9.61%.
To `CCOc1ccc(OCCC(=O)N(CC)CC(=O)NCc2ccc(Cl)cc2)cc1` belongs -46.7%; to `COc1ccc(-n2ncc3c(N4CCc5ccccc54)ncnc32)cc1`, 6.47%.
To `CN(CCOCCOc1ccc(F)cc1)Cc1ccccc1.O=C(O)C(=O)O` belongs 0.338%; to `C#Cc1ccc([C@@H]2C=C(C(=O)O)O[C@H](OCCCCO)C2)cc1`, 13.3%.
The same measure for `Br.COc1ccc(-c2csc(Nc3ccc(S(=O)(=O)Nc4cc(OC)nc(OC)n4)cc3)n2)cc1`: 17.4%.
Turning to `CC(=O)C1C2c3ccccc3O[C@@]1(C)N=c1s/c(=C/c3ccoc3)c(=O)n12` (some centres unmarked), the “hERG current change (%, negative = inhibition) at 1uM” value amounted to 8.27%.
The same measure for `N#CC(c1ccncc1)(c1ncc(C(F)(F)F)cc1Cl)N1CCOCC1` (centres unmarked): 6.01%; for `CCN(CC)C(=O)CSCc1cnn(-c2ccccc2)c1-n1cccc1`: -9.24%; for `COc1ccc(C)cc1S(=O)(=O)N1CCCCCC1`: 4.71%.
The same measure for `COc1cccc(-c2noc(CCC(=O)Nc3cccnc3)n2)c1`: 2.2%; for `COC(=O)C1=CN(c2ccc(F)cc2)C=C(C(=O)OC)C1c1cccc([N+](=O)[O-])c1`: 0.153%.
`CCOc1ccc2[nH]c3c(NCCOC)ncnc3c2c1`: the “hERG current change (%, negative = inhibition) at 1uM” value was determined as 2.44%.
On to `CC1CC(C)CN(S(=O)(=O)c2ccc3c(c2)oc(=O)n3CC(=O)NCCCOC(C)C)C1` (centres unmarked), for which the “hERG current change (%, negative = inhibition) at 1uM” value is on record as 11.7%.

The record behind these values is article PMC4336329 (PLoS ONE, 2015).
